The data set deals with Escherichia coli (laboratory strain). Kind of data set: barcode share on antibiotic plates over drug-free plates; higher = less susceptible. The following applies: antibiotic: gentamicin; 2× MIC (MIC 0.45 µg/mL). The procedure:
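A pool of E. coli strains, each edited to carry one amino-acid change in an essential protein, was grown for 48 h on minimal glucose agar with or without antibiotic; strain barcodes were sequenced; mean of two replicates.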

Consider 13 proteins from the supplement of paper PMC11876631.

± gives the standard deviation of the averaged measurements. Laboratory Escherichia coli strains with one amino-acid change in an essential protein, pooled on minimal glucose agar with carbenicillin or gentamicin at twice the control MIC (plus kanamycin and chloramphenicol for the plasmids), 48 h. Fold change of barcode share against drug-free plates; higher = less susceptible. Active = above 20 in both replicates (the paper's putatively resistant). '<' = one read or none on drug, '>' = one read or none on a drug-free plate. Shares are relative, so most strains fall below 1 when a few take over. Listed are strains with at least 15 reads on both drug-free plates, and hits; most hits rest on fewer reference reads. Replicate rank correlation about 0.5. Edits are read from barcodes.

B1: erpA V70W (protein)
chain: MSDDVALPLEFTDAAANKVKSLIADEDNPNLKLRVYITGGGCSGFQYGFTFDDQVNEGDMTIEKQGVGLWVDPMSLQYLVGGSVDYTEGLEGSRFIVTNPNAKSTCGCGSSFSI
B1: the “fold change of barcode share” value was 1720 [active].

B2: dnaC V135A (protein)
chain: MKNVGDLMQRLQKMMPAHIKPAFKTGEELLAWQKEQGAIRSAALERENRAMKMQRTFNRSGIRPLHQNCSFENYRVECEGQMNALSKARQYVEEFDGNIASFIFSGKPGTGKNHLAAAICNELLLRGKSVLIITAADIMSAMKDTFRNSGTSEEQLLNDLSNVDLLVIDEIGVQTESKYEKVIINQIVDRRSSSKRPTGMLTNSNMEEMTKLLGERVMDRMRLGNSLWVIFNWDSYRSRVTGKEY
With B2, the “fold change of barcode share” value was less than 0.00764.

B3: dnaA L74A (protein)
chain: MSLSLWQQCLARLQDELPATEFSMWIRPLQAELSDNTLALYAPNRFVLDWVRDKYLNNINGLLTSFCGADAPQARFEVGTKPVTQTPQAAVTSNVAAPAQVAQTQPQRAAPSTRSGWDNVPAPAEPTYRSNVNVKHTFDNFVEGKSNQLARAAARQVADNPGGAYNPLFLYGGTGLGKTHLLHAVGNGIMARKPNAKVVYMHSERFVQDMVKALQNNAIEEFKRYYRSVDALLIDDIQFFANKERSQEEFFHTFNALLEGNQQIILTSDRYPKEINGVEDRLKSRFGWGLTVAIEPPELETRVAILMKKADENDIRLPGEVAFFIAKRLRSNVRELEGALNRVIANANFTGRAITIDFVREALRDLLALQEKLVTIDNIQKTVAEYYKIKVADLLSKRRSRSVARPRQMAMALAKELTNHSLPEIGDAFGGRDHTTVLHACRKIEQLREESHDIKEDFSNLIRTLSS
As for B3, the “fold change of barcode share” value was determined as 0.0151 ± 0.013.

B4: dnaA L74P (protein)
chain: MSLSLWQQCLARLQDELPATEFSMWIRPLQAELSDNTLALYAPNRFVLDWVRDKYLNNINGLLTSFCGADAPQPRFEVGTKPVTQTPQAAVTSNVAAPAQVAQTQPQRAAPSTRSGWDNVPAPAEPTYRSNVNVKHTFDNFVEGKSNQLARAAARQVADNPGGAYNPLFLYGGTGLGKTHLLHAVGNGIMARKPNAKVVYMHSERFVQDMVKALQNNAIEEFKRYYRSVDALLIDDIQFFANKERSQEEFFHTFNALLEGNQQIILTSDRYPKEINGVEDRLKSRFGWGLTVAIEPPELETRVAILMKKADENDIRLPGEVAFFIAKRLRSNVRELEGALNRVIANANFTGRAITIDFVREALRDLLALQEKLVTIDNIQKTVAEYYKIKVADLLSKRRSRSVARPRQMAMALAKELTNHSLPEIGDAFGGRDHTTVLHACRKIEQLREESHDIKEDFSNLIRTLSS
B4: the “fold change of barcode share” value worked out at 0.0218 ± 0.021.

B5: dnaA L74D (protein)
chain: MSLSLWQQCLARLQDELPATEFSMWIRPLQAELSDNTLALYAPNRFVLDWVRDKYLNNINGLLTSFCGADAPQDRFEVGTKPVTQTPQAAVTSNVAAPAQVAQTQPQRAAPSTRSGWDNVPAPAEPTYRSNVNVKHTFDNFVEGKSNQLARAAARQVADNPGGAYNPLFLYGGTGLGKTHLLHAVGNGIMARKPNAKVVYMHSERFVQDMVKALQNNAIEEFKRYYRSVDALLIDDIQFFANKERSQEEFFHTFNALLEGNQQIILTSDRYPKEINGVEDRLKSRFGWGLTVAIEPPELETRVAILMKKADENDIRLPGEVAFFIAKRLRSNVRELEGALNRVIANANFTGRAITIDFVREALRDLLALQEKLVTIDNIQKTVAEYYKIKVADLLSKRRSRSVARPRQMAMALAKELTNHSLPEIGDAFGGRDHTTVLHACRKIEQLREESHDIKEDFSNLIRTLSS
For B5, the “fold change of barcode share” value was less than 0.0159.

B6: dnaA L74Q (protein)
chain: MSLSLWQQCLARLQDELPATEFSMWIRPLQAELSDNTLALYAPNRFVLDWVRDKYLNNINGLLTSFCGADAPQQRFEVGTKPVTQTPQAAVTSNVAAPAQVAQTQPQRAAPSTRSGWDNVPAPAEPTYRSNVNVKHTFDNFVEGKSNQLARAAARQVADNPGGAYNPLFLYGGTGLGKTHLLHAVGNGIMARKPNAKVVYMHSERFVQDMVKALQNNAIEEFKRYYRSVDALLIDDIQFFANKERSQEEFFHTFNALLEGNQQIILTSDRYPKEINGVEDRLKSRFGWGLTVAIEPPELETRVAILMKKADENDIRLPGEVAFFIAKRLRSNVRELEGALNRVIANANFTGRAITIDFVREALRDLLALQEKLVTIDNIQKTVAEYYKIKVADLLSKRRSRSVARPRQMAMALAKELTNHSLPEIGDAFGGRDHTTVLHACRKIEQLREESHDIKEDFSNLIRTLSS
As for B6, the “fold change of barcode share” value was less than 0.00339.

B7: eno M94A (protein)
chain: MSKIVKIIGREIIDSRGNPTVEAEVHLEGGFVGMAAAPSGASTGSREALELRDGDKSRFLGKGVTKAVAAVNGPIAQALIGKDAKDQAGIDKIAIDLDGTENKSKFGANAILAVSLANAKAAAAAKGMPLYEHIAELNGTPGKYSMPVPMMNIINGGEHADNNVDIQEFMIQPVGAKTVKEAIRMGSEVFHHLAKVLKAKGMNTAVGDEGGYAPNLGSNAEALAVIAEAVKAAGYELGKDITLAMDCAASEFYKDGKYVLAGEGNKAFTSEEFTHFLEELTKQYPIVSIEDGLDESDWDGFAYQTKVLGDKIQLVGDDLFVTNTKILKEGIEKGIANSILIKFNQIGSLTETLAAIKMAKDAGYTAVISHRSGETEDATIADLAVGTAAGQIKTGSMSRSDRVAKYNQLIRIEEALGEKAPYNGRKEIKGQA
For the protein B7, the “fold change of barcode share” value was less than 0.0196.

B8: eno L112P (protein)
chain: MSKIVKIIGREIIDSRGNPTVEAEVHLEGGFVGMAAAPSGASTGSREALELRDGDKSRFLGKGVTKAVAAVNGPIAQALIGKDAKDQAGIDKIMIDLDGTENKSKFGANAIPAVSLANAKAAAAAKGMPLYEHIAELNGTPGKYSMPVPMMNIINGGEHADNNVDIQEFMIQPVGAKTVKEAIRMGSEVFHHLAKVLKAKGMNTAVGDEGGYAPNLGSNAEALAVIAEAVKAAGYELGKDITLAMDCAASEFYKDGKYVLAGEGNKAFTSEEFTHFLEELTKQYPIVSIEDGLDESDWDGFAYQTKVLGDKIQLVGDDLFVTNTKILKEGIEKGIANSILIKFNQIGSLTETLAAIKMAKDAGYTAVISHRSGETEDATIADLAVGTAAGQIKTGSMSRSDRVAKYNQLIRIEEALGEKAPYNGRKEIKGQA
Regarding B8, the “fold change of barcode share” value was > 89.6 [active].

B9: eno M94D (protein)
chain: MSKIVKIIGREIIDSRGNPTVEAEVHLEGGFVGMAAAPSGASTGSREALELRDGDKSRFLGKGVTKAVAAVNGPIAQALIGKDAKDQAGIDKIDIDLDGTENKSKFGANAILAVSLANAKAAAAAKGMPLYEHIAELNGTPGKYSMPVPMMNIINGGEHADNNVDIQEFMIQPVGAKTVKEAIRMGSEVFHHLAKVLKAKGMNTAVGDEGGYAPNLGSNAEALAVIAEAVKAAGYELGKDITLAMDCAASEFYKDGKYVLAGEGNKAFTSEEFTHFLEELTKQYPIVSIEDGLDESDWDGFAYQTKVLGDKIQLVGDDLFVTNTKILKEGIEKGIANSILIKFNQIGSLTETLAAIKMAKDAGYTAVISHRSGETEDATIADLAVGTAAGQIKTGSMSRSDRVAKYNQLIRIEEALGEKAPYNGRKEIKGQA
As to B9, the “fold change of barcode share” value is less than 0.0213.

B10: eno I183A (protein)
chain: MSKIVKIIGREIIDSRGNPTVEAEVHLEGGFVGMAAAPSGASTGSREALELRDGDKSRFLGKGVTKAVAAVNGPIAQALIGKDAKDQAGIDKIMIDLDGTENKSKFGANAILAVSLANAKAAAAAKGMPLYEHIAELNGTPGKYSMPVPMMNIINGGEHADNNVDIQEFMIQPVGAKTVKEAARMGSEVFHHLAKVLKAKGMNTAVGDEGGYAPNLGSNAEALAVIAEAVKAAGYELGKDITLAMDCAASEFYKDGKYVLAGEGNKAFTSEEFTHFLEELTKQYPIVSIEDGLDESDWDGFAYQTKVLGDKIQLVGDDLFVTNTKILKEGIEKGIANSILIKFNQIGSLTETLAAIKMAKDAGYTAVISHRSGETEDATIADLAVGTAAGQIKTGSMSRSDRVAKYNQLIRIEEALGEKAPYNGRKEIKGQA
B10: the “fold change of barcode share” value is less than 0.0132.

B11: eno I171W (protein)
chain: MSKIVKIIGREIIDSRGNPTVEAEVHLEGGFVGMAAAPSGASTGSREALELRDGDKSRFLGKGVTKAVAAVNGPIAQALIGKDAKDQAGIDKIMIDLDGTENKSKFGANAILAVSLANAKAAAAAKGMPLYEHIAELNGTPGKYSMPVPMMNIINGGEHADNNVDIQEFMWQPVGAKTVKEAIRMGSEVFHHLAKVLKAKGMNTAVGDEGGYAPNLGSNAEALAVIAEAVKAAGYELGKDITLAMDCAASEFYKDGKYVLAGEGNKAFTSEEFTHFLEELTKQYPIVSIEDGLDESDWDGFAYQTKVLGDKIQLVGDDLFVTNTKILKEGIEKGIANSILIKFNQIGSLTETLAAIKMAKDAGYTAVISHRSGETEDATIADLAVGTAAGQIKTGSMSRSDRVAKYNQLIRIEEALGEKAPYNGRKEIKGQA
Take B11: the “fold change of barcode share” value was > 47 [active].

B12: adk L209W (protein)
chain: MRIILLGAPGAGKGTQAQFIMEKYGIPQISTGDMLRAAVKSGSELGKQAKDIMDAGKLVTDELVIALVKERIAQEDCRNGFLLDGFPRTIPQADAMKEAGINVDYVLEFDVPDELIVDRIVGRRVHAPSGRVYHVKFNPPKVEGKDDVTGEELTTRKDDQEETVRKRLVEYHQMTAPLIGYYSKEAEAGNTKYAKVDGTKPVAEVRADWEKILG
For the protein B12, the “fold change of barcode share” value was determined as 0.0204 ± 0.017.

B13: adk L209Q (protein)
chain: MRIILLGAPGAGKGTQAQFIMEKYGIPQISTGDMLRAAVKSGSELGKQAKDIMDAGKLVTDELVIALVKERIAQEDCRNGFLLDGFPRTIPQADAMKEAGINVDYVLEFDVPDELIVDRIVGRRVHAPSGRVYHVKFNPPKVEGKDDVTGEELTTRKDDQEETVRKRLVEYHQMTAPLIGYYSKEAEAGNTKYAKVDGTKPVAEVRADQEKILG
On to B13, for which the “fold change of barcode share” value is less than 0.0202.
